Reference: PubChem BioAssay AID588855 (National Center for Advancing Translational Sciences (NCATS), 2011)
The whole screen tested about 410,000 compounds, of which about 5,000 (1.2%) were called active. Inconclusive results, whose numbers are uncertain, are shown with a selection of clear calls. Calls come from the whole dose curve; as a rule, active = well fitted inhibition curve with a large enough effect; inconclusive = small, poorly fitted or top-dose-only effect; inactive = no such curve, though single readings can be large or run the other way. Potencies beside an inconclusive call are fits to weak or partial responses and may not hold up.

experiment: qHTS for Inhibitors of TGF-b; settings: HepG2 CAGA-GFP TGF-b/SMAD3 reporter, GFP fluorescence, 18 h, TGF-beta stimulated, 500 pg/mL final; series mostly up to 46.1 µM; note: nearly all actives have a fitted effect of over 65% in size
Summary of the method: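 TGF-beta reporter screen: HEPG2 CAGA-GFP, 1% FBS, 500 pg/mL TGF-beta final, 18 h; per-cell GFP summed per well; curves fitted and categorized by class.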
Potency is the fitted concentration of half-maximal effect; tags give direction and shape of the fitted curve.

| SMILES | Potency |
| --- | --- |
| COCCCNC(=O)c1ccc2c(=O)n(Cc3ccc4c(c3)OCO4)c(=S)[nH]c2c1 | inactive |
| O=C(Nc1nnc(C2CCCCC2)s1)C1CCN(C(=O)c2ccco2)CC1 | inactive |
| Cc1ccc(S(=O)(=O)N2CCN(c3ccc([N+](=O)[O-])c(NCCN4CCOCC4)c3)CC2)cc1 | inconclusive: 17.8 µM [inhibitor, single point] |
| Cc1nn(CCO)c(N)c1C1(O)C(=O)Nc2c(Cl)cc(Cl)cc21 (stereo not given) | inconclusive: 35.5 µM [inhibitor, single point] |
| CC(=O)N1N=C(c2ccccc2O)CC1c1cccs1 (stereo not given) | inactive |
| COc1ccc(C2=CC(=O)C[C@H](c3ccc(OC)c(OC)c3)C2)cn1 | inconclusive: 7.08 µM [inhibitor, partial curve, poor fit] |
| O=C(COc1ccccc1)Nc1nc(-c2cccnc2)cs1 | inactive |
| C=CCc1cc(/C=N/NC(=O)CSc2nnc(CCCc3ccc(OC)cc3)o2)cc(OC)c1O | inconclusive: 35.5 µM [inhibitor, single point] |
| CC(C)n1c(=O)c2oc3ccccc3c2n(CC(=O)Nc2ccccc2Cl)c1=O | inactive |
| N#CC1=C(SCC(=O)c2ccc(Br)cc2)NC2=C(C(=O)CCC2)C1c1ccco1 (stereo not given) | inactive |
| CSCCC(NC(=O)c1ccco1)C(=O)N1CCCC(C(F)(F)F)C1 (stereo not given) | inactive |
| NS(=O)(=O)c1ccc(CNC(=O)CNC(=O)c2ccc(F)cc2)cc1 | inactive |
| CN(C)c1ccc2nc3c(=O)[nH]c(=O)nc-3n(CC(O)C(O)C(O)CO)c2c1 (stereo not given) | inactive |
| O=C(c1ccccc1)c1ccc(OCCCN2CCCCC2)cc1 | inactive |
| CCCCC1CCC(C(=O)Nc2ccc(S(=O)(=O)Nc3nccs3)cc2)CC1 (stereo not given) | inconclusive: 20 µM [inhibitor, partial curve, poor fit] |
| O=C1Nc2ccc(F)cc2C12SCCS2 | inconclusive: 22.4 µM [inhibitor, single point] |
| c1ccc(CNc2nc(NCCc3ccncc3)c3sccc3n2)cc1 | active: 2.24 µM |
| CC1CCN(C(=O)c2[nH]cnc2C(=O)NCCCCCNC(=O)OC(C)(C)C)CC1 | inconclusive: 22.4 µM [inhibitor, single point] |
| Cc1ccc2c(c1)COc1c3ccc(C(=O)N[C@@H](C)CO)cc3nn1-2 | inactive |
| Cc1cccc(C(=O)NCCNc2nc3cc(C)c(C)cc3cc2C)c1 | inconclusive: 22.4 µM [inhibitor, single point] |
| COc1ccc(C(=O)N(Cc2nc(-c3ccc(C)cc3)no2)C2CCCCC2)cc1OC | inconclusive: 11.2 µM [inhibitor, partial curve, poor fit] |
| Fc1ccc(CN2CCN(c3ncnc4scc(-c5ccccc5)c34)CC2)cc1 | inconclusive: 20 µM [inhibitor, single point] |
| COC(=O)[C@H](Cc1ccccc1)N1C/C=C\COc2c(Cl)cc(Cl)cc2S1(=O)=O | inconclusive: 15.8 µM [inhibitor, single point] |
| COc1ccc(CCN2C(=S)N(C)C(=O)C2CC(=O)Nc2ccc(F)cc2)cc1 (stereo not given) | inconclusive: 17.8 µM [inhibitor, single point] |

| SMILES | Potency |
| --- | --- |
| Cc1cccc(C(=O)Nc2ccccc2OCc2cc(=O)n3cc(C)ccc3n2)c1 | inactive |
| Cc1ccc2c(c1)CCCN2C(=O)c1ccoc1C | inactive |
| CSc1nnc(CSCc2ccc(Cl)cc2Cl)n1-c1ccccc1 | inconclusive: 22.4 µM [inhibitor, single point] |
| COc1ccccc1N1CCN(CCOc2c(OC)cccc2OC)CC1 | inactive |
| Cc1ccc(CN2CCC(CNC(=O)Nc3cccc(C)c3C)C2)cc1 (stereo not given) | inconclusive: 11.2 µM [inhibitor, single point] |
| O=C1CC(c2ccc(Br)cc2)c2c(ccc3ccccc23)N1 (stereo not given) | inconclusive: 35.5 µM [inhibitor, single point] |
| COc1ccc(NC(=O)CCc2c(C)nc3cc(-c4cccc(F)c4)nn3c2C)cc1Cl | inconclusive: 0.316 µM [inhibitor, full curve, poor fit] |
| CCc1nnc2c3ccccc3nc(N3CCN(c4cc(Cl)ccc4C)CC3)n12 | inactive |
| CCc1ccc(CN2CCC(C(=O)Nc3cccc(-c4nnc(C)s4)c3)CC2)o1 | inconclusive: 35.5 µM [inhibitor, single point] |
| CN(c1ccccc1)S(=O)(=O)c1cccc(NC(=O)Cc2ccc(Cl)cc2)c1 | inconclusive: 35.5 µM [inhibitor, single point] |
| O=C(NC(=S)NCc1nc2ccccc2[nH]1)c1ccc(F)cc1 | inconclusive: 35.5 µM [inhibitor, single point] |
| COc1cccc(C2=NN(C(=O)c3cccs3)C(O)(C(F)(F)F)C2)c1 (stereo not given) | inconclusive: 20 µM [inhibitor, single point] |
| CCC(C)[C@H](NC(=O)N1CCn2c1nc1ccccc12)C(=O)NCc1ccc(OC)cc1 (stereo not given in full) | inconclusive: 15.8 µM [inhibitor, single point] |
| O=C(COc1ccc(Br)cc1)Nc1ccc(C(=O)OC2CCCCC2)cc1 | inactive |
| CCCOc1c(Cl)cc(C(=O)Nc2ccc3c(c2)OCO3)cc1OCC | inconclusive: 20 µM [inhibitor, single point] |
| CCOCCCNC(=S)N1CCN(c2nc(-c3ccc(F)cc3)cs2)CC1 | inconclusive: 10 µM [inhibitor, partial curve] |
| O=C(CC1SC(N2CCCC2)=NC1=O)Nc1ccc(C(=O)NCc2ccc(F)cc2)cc1 (stereo not given) | inactive |
| COC(=O)c1cc2sccc2n1Cc1nc(-c2ccc(C)cc2)oc1C | inactive |
| COc1cc(C(CCN2CCOCC2)c2c(OC)cc(OC)c3c(C)cc(=O)oc23)cc(OC)c1OC (stereo not given) | inactive |
| Cc1cc(C)c(NC(=O)C2CCCN(C(=O)c3cnn(-c4ccccc4)c3-n3cccc3)C2)c(C)c1 (stereo not given) | inconclusive: 0.112 µM [inhibitor, full curve, poor fit] |
| O=C1OCCN1C(=O)[C@H]1[C@H](c2ccc(F)cc2)C(c2cccc(Cl)c2)=NN1c1ccc(Br)cc1 | inconclusive: 20 µM [inhibitor, single point] |
| CN(C(=O)CSc1nc2ccccc2n1CC(=O)N(C)C1CCCCC1)c1ccc(F)cc1 | inactive |
| Cc1cccc(N2CCN(C(=O)CCCSc3nc4ccccc4[nH]3)CC2)c1C | inconclusive: 2 µM [inhibitor, full curve] |
| O=C(Cn1c(=O)c2c(ncn2Cc2ccccc2)n(Cc2ccccc2)c1=O)N1CCCC1 | inconclusive: 6.31 µM [inhibitor, partial curve, poor fit] |

| SMILES | Potency |
| --- | --- |
| Oc1ccc2ccccc2c1/C=N/Nc1ccccc1 | inactive |
| CCc1cccc(OCCCN2C(=O)NC(C)(C)C2=O)c1 | inconclusive: 5.62 µM [inhibitor, single point] |
| CCOC(=O)c1c(C)[nH]c(C)c1S(=O)(=O)N(C)CC(=O)Nc1ccc(C)c(F)c1 | inconclusive: 35.5 µM [inhibitor, single point] |
| CC(=O)Nc1ccc2nc(SCCOc3ccccc3Cl)sc2c1 | inconclusive: 35.5 µM [inhibitor, single point] |
| Cc1ccc(N(CC(=O)N2CCN(c3cccc(C)c3C)CC2)S(=O)(=O)c2c(C)nn(C)c2C)cc1 | inconclusive: 22.4 µM [inhibitor, single point] |
| CCN(c1cc(C)cc(C)c1)S(=O)(=O)c1nnc(NC(=O)c2ccccc2C)s1 | inconclusive: 8.91 µM [inhibitor, partial curve, poor fit] |
| O=C(C1=C[C@@H](C2CC2)C[C@@H](OCc2ccc(CO)cc2)O1)N1CCN(Cc2ccc3c(c2)OCO3)CC1 | inactive |
| COc1ccc(NC(=O)COc2ccccc2Cc2ccccc2)cc1S(N)(=O)=O | inconclusive: 14.1 µM [inhibitor, single point] |
| Cc1cc(C)c(S(=O)(=O)N2CCOC2CNC(=O)C(=O)NCCc2c[nH]c3ccccc23)c(C)c1 (stereo not given) | inactive |
| NS(=O)(=O)c1ccc(Sc2ccc3ccccc3c2)nc1 | inconclusive: 11.2 µM [inhibitor, partial curve, poor fit] |
| COc1ccc(CCNC(=O)c2cc(=O)[nH]c3ccc(S(=O)(=O)N4CCCCC4)cc23)cc1OC | inconclusive: 2.82 µM [inhibitor, full curve, poor fit] |
| CC(=O)Nc1ccc(CNc2nc3cc(-c4ccccc4C)sc3c(=O)n2C)cc1 | inconclusive: 35.5 µM [inhibitor, single point] |
| C/C(=N\Nc1ccccc1)c1cccc(N)c1 | inactive |
| O=C(NCc1cccnc1)c1ccc2sc([C@H]3C[C@H](O)[C@@H](CO)O3)nc2c1 | inactive |
| COc1cc(-c2coc3c(C(=O)NCc4ccc(C(F)(F)F)cc4)cccc23)ccc1O | inconclusive: 35.5 µM [inhibitor, single point] |
| CCOc1ccc(C2CC=C(C(C)=O)CN2S(=O)(=O)c2ccc(C)cc2)cc1 (stereo not given) | inconclusive: 15.8 µM [inhibitor, single point] |
| COc1ccc(NC(=O)C2Cc3c(-c4ccc(NC(C)=O)cc4)ccnc3O2)cn1 (stereo not given) | inactive |
| O=C(CN1CCN(Cc2ccccc2)CC1)N1CCCc2c1c(=O)oc1ccc(O)cc21 | inactive |
| Brc1c(CSc2nc3ccccc3o2)nc2ncccn12 | inconclusive: 2.82 µM [inhibitor, partial curve] |
| NC1=CC(=O)C(=O)c2cccnc21 | active: 7.94 µM |
| COCCNC(=S)N/N=C(\C)c1cccc([N+](=O)[O-])c1 | inconclusive: 3.16 µM [inhibitor, single point] |
| CCCCOc1c(Br)cc(/C=N/O)cc1OCC | inconclusive: 35.5 µM [inhibitor, single point] |
